The other results are listed elsewhere or left out. These are noisy estimates, calculated here from bound and input reads.
molecular target: T1, Pho4 (S. cerevisiae) (UniProt P07270); test: relative binding free energy (BET-seq); higher = weaker binding; conditions: reference: library average
T1 sequence: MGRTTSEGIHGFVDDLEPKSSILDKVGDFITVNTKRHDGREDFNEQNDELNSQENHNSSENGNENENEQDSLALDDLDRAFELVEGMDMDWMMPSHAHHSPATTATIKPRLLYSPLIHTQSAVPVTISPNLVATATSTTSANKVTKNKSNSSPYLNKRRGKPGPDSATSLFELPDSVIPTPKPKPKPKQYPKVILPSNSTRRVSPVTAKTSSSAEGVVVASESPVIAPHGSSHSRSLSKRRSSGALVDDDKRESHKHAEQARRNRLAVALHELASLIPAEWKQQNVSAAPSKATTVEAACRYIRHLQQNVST

Row | Sequence | relative binding free energy
1 | GATGTCACGTGGCTTG | 0.14 kcal/mol
2 | GTTATCACGTGGCGCT | 0.15 kcal/mol
3 | AATGTCACGTGTGTGC | 0.06 kcal/mol
4 | GTCTGCACGTGGTCTG | -0.07 kcal/mol
5 | TATATCACGTGTAGAG | 0.15 kcal/mol
6 | TTTAACACGTGTAGCT | 0.1 kcal/mol
7 | ATACGCACGTGTTTGT | -0.17 kcal/mol
8 | AGCGTCACGTGTATTG | 0.09 kcal/mol
9 | ATTCACACGTGGCGGT | 0.04 kcal/mol
10 | ATTGTCACGTGTAGGT | 0.14 kcal/mol
11 | GTGGGCACGTGTTCGT | 0.04 kcal/mol
12 | CATTGCACGTGGGTTA | -0.13 kcal/mol
13 | ATAATCACGTGGATGA | 0.13 kcal/mol
14 | TGTGACACGTGATGCT | -0.05 kcal/mol
15 | TTTTCCACGTGGGTGC | -0.06 kcal/mol
16 | TTCGGCACGTGAAGGC | 0.18 kcal/mol
17 | GGGGACACGTGGAAGG | 0.08 kcal/mol
18 | TATCACACGTGATTTT | 0.31 kcal/mol
19 | GATTTCACGTGGGTGG | 0.38 kcal/mol
20 | ACGTTCACGTGGTAGG | 0.07 kcal/mol
21 | TGAATCACGTGTTACT | 0.28 kcal/mol
22 | TAAGTCACGTGGGAAG | -0.01 kcal/mol
23 | CGTTGCACGTGGGGGA | -0.2 kcal/mol
24 | TTGTTCACGTGTCTGA | 0.25 kcal/mol
25 | TTTGGCACGTGAACGT | 0.05 kcal/mol

Row | Sequence | relative binding free energy
26 | TGTTTCACGTGCGTTT | 0.38 kcal/mol
27 | ATCAGCACGTGTTGGG | -0.07 kcal/mol
28 | TTTGGCACGTGCATTG | -0.29 kcal/mol
29 | TATTACACGTGGACGG | 0.11 kcal/mol
30 | GGTTTCACGTGGGTCG | 0.29 kcal/mol
31 | TGGATCACGTGATTTC | 0.46 kcal/mol
32 | TCGTACACGTGTGTAG | 0.06 kcal/mol
33 | GGCTTCACGTGAAGTT | 0.32 kcal/mol
34 | GTGGTCACGTGGCTCG | 0.09 kcal/mol
35 | GTAAACACGTGGGAGG | 0.09 kcal/mol
36 | GAGGGCACGTGAACTG | 0.27 kcal/mol
37 | CGATTCACGTGTGGGG | 0.39 kcal/mol
38 | ATTATCACGTGGTTTC | 0.15 kcal/mol
39 | GTGTTCACGTGGCGCT | 0.15 kcal/mol
40 | AGGCGCACGTGTAGGT | 0.01 kcal/mol
41 | CGTGTCACGTGTGTGT | 0.09 kcal/mol
42 | GGGAGCACGTGATGTA | 0.12 kcal/mol
43 | GGGGTCACGTGGATCA | 0.16 kcal/mol
44 | GGATCCACGTGTGGGA | 0.2 kcal/mol
45 | ATAAGCACGTGGAGGT | -0.07 kcal/mol
46 | TAGCGCACGTGTATGT | -0.09 kcal/mol
47 | GGGTACACGTGTGGCC | 0.13 kcal/mol
48 | ATTGTCACGTGTGGTA | 0.13 kcal/mol
49 | TAGGGCACGTGGATAG | -0.1 kcal/mol
50 | TGTTGCACGTGATTGC | 0.13 kcal/mol

Row | Sequence | relative binding free energy
51 | TGTTACACGTGGACTT | 0.06 kcal/mol
52 | TGGCGCACGTGTAATA | 0.08 kcal/mol
53 | TTGGTCACGTGTTTCG | 0.04 kcal/mol
54 | GGCGTCACGTGTGAAT | 0.16 kcal/mol
55 | TTGTGCACGTGTGTGG | -0.01 kcal/mol
56 | AATGGCACGTGTTAGG | -0.11 kcal/mol
57 | CTGGTCACGTGAGGTA | 0.2 kcal/mol
58 | AGTATCACGTGTATTT | 0.13 kcal/mol
59 | CGGCTCACGTGGTGGT | 0.13 kcal/mol
60 | TGGGGCACGTGTAATC | 0.08 kcal/mol
61 | TGATCCACGTGGTGTA | -0.13 kcal/mol
62 | ACGGGCACGTGGAAGG | -0.09 kcal/mol
63 | ATTCGCACGTGTGAGG | 0.06 kcal/mol
64 | TGTTGCACGTGGCTAA | -0.1 kcal/mol
65 | TCTGGCACGTGGAGGC | 0.09 kcal/mol
66 | ATTTCCACGTGTATGG | 0.03 kcal/mol
67 | TGGGTCACGTGAATTA | 0.23 kcal/mol
68 | TTTAGCACGTGTGGAT | 0.06 kcal/mol
69 | GGTTGCACGTGGCCAG | -0.05 kcal/mol
70 | GTGTTCACGTGAGTGA | 0.47 kcal/mol
71 | TCGTTCACGTGTTTCA | 0.32 kcal/mol
72 | ACCGTCACGTGTGGGT | 0.15 kcal/mol
73 | AGGGGCACGTGGTTTC | -0.2 kcal/mol
